In all, about 45,000 compounds went through this assay and about 200 (0.44%) were called active. About 7% were inconclusive and are not listed. Calls follow the shape of the dose curve; as a rule, active = well fitted activation curve with a large enough effect; inconclusive = small, poorly fitted or top-dose-only effect; inactive = no such curve, though single readings can be large or run the other way. Some of the results follow.
Test: qHTS of TDP-43 Inhibitors: NCGC Sytravon Library Screen; also: 0% is about no effect; nearly all actives have a fitted effect of over 55% in size
Details: yeast TDP-43 toxicity rescue, BacTiter-Glo growth, 24 h; series mostly up to 46.1 µM; growth rescue (activation): at the top concentration
How it was run: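 TDP-43-expressing yeast, pregrown in raffinose, seeded at OD600 0.02 in galactose medium with compound for 24 hr at 30 deg C. Growth read by BacTiter-Glo luminescence, so rescue of toxicity appears as activation.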

Which “growth rescue (activation)” value does the source give for `CSc1nc2ccccc2nc1N(C)S(=O)(=O)c1ccc(C)cc1` here?
Its value is inactive: -7.43%.

With `O=c1[nH]nc(-c2ccccc2)c2ccccc12` as the compound, how does the “growth rescue (activation)” value read?
The value was inactive: 10.6%.

For `CNC(=O)c1[nH]nc2c1CCc1cc(OC)ccc1-2`, which “growth rescue (activation)” value is on record?
Its value is inactive: 6.99%.

Which “growth rescue (activation)” value does the source give for `CC1(C(=O)NS(=O)(=O)Cc2cccc(Cl)c2)CCN1C(=O)C1(c2ccc(Cl)cc2)CCC1` (stereo unspecified) here?
The value was inactive: -12.4%.

With `Cc1ccc(C(=O)NCCc2ccccn2)cc1S(=O)(=O)N1CCOCC1` as the compound, how does the “growth rescue (activation)” value read?
Its value is inactive: 9.58%.

For `COc1ccccc1NC(=O)c1nc(S(=O)(=O)Cc2ccccc2)ncc1Cl`, which “growth rescue (activation)” value is on record?
The value was inactive: 12.9%.

For `O=C(NCCCl)Nc1ccccc1NS(=O)(=O)c1cccs1`, which “growth rescue (activation)” value is on record?
Its value is inactive: 1.73%.

With `Cc1ccc(S(=O)(=O)Nc2cc(C(F)(F)F)ccc2N2CCOCC2)c(C)c1` as the compound, how does the “growth rescue (activation)” value read?
Its value is inactive: -36.9%.

With `CN(C)Cc1csc(NC(=O)Nc2ccccc2-c2ccccc2)n1` as the compound, how does the “growth rescue (activation)” value read?
Its value is inactive: 6.31%.

With `CN(CC(=O)N1CCCC1)S(=O)(=O)c1cccc(Cl)c1` as the compound, how does the “growth rescue (activation)” value read?
Its value is inactive: 0.323%.

Which “growth rescue (activation)” value does the source give for `O=C1NC(=S)N/C1=C/C=C/c1ccccc1` here?
Its value is inactive: 2.66%.

With `COc1ccc(CCn2c(NN=C3CCCCC3)nc3c2c(=O)[nH]c(=O)n3C)cc1` as the compound, how does the “growth rescue (activation)” value read?
The value was inactive: 1.7%.

Which “growth rescue (activation)” value does the source give for `CC(=C/c1ccco1)/C=N/NC(=O)c1nnn(-c2nonc2N)c1CN(C)C` here?
Its value is inactive: 6.15%.

Which “growth rescue (activation)” value does the source give for `COc1ccccc1C(=O)ON=C1c2ccccc2-c2ccccc21` here?
Its value is inactive: -2.69%.

For `CCOc1ccc(CC(=O)NNC(=S)NC2CCCCC2)cc1OCC`, which “growth rescue (activation)” value is on record?
Its value is inactive: -13.6%.

Which “growth rescue (activation)” value does the source give for `CCCCOC(=O)N1CCOCCOCCOCCOCC1` here?
Its value is inactive: 6.36%.

Which “growth rescue (activation)” value does the source give for `O=C(CSc1nc(-c2ccco2)cc(C(F)(F)F)n1)NN1CCOCC1` here?
Its value is inactive: 6.35%.

For `COc1ccc(C(=O)Nc2ccc(NC(=O)c3ccccc3F)cn2)cc1`, which “growth rescue (activation)” value is on record?
The value was inactive: 0.315%.

With `CCOc1ccccc1/C=C/c1nc2ccccc2[nH]c1=O` as the compound, how does the “growth rescue (activation)” value read?
Its value is inactive: 3.37%.

For `COc1ccccc1-c1nnc(SCC(=O)NC2CCCCC2)n1C`, which “growth rescue (activation)” value is on record?
The value was inactive: 6.31%.

For `Cn1c(N)nc2nc(CCc3ccccc3)c(=O)[nH]c2c1=O`, which “growth rescue (activation)” value is on record?
The value was inactive: -3.73%.

Which “growth rescue (activation)” value does the source give for `Cc1nn(-c2ccccc2)c(C)c1S(=O)(=O)O` here?
Its value is inactive: -2.35%.

For `O=C(COC(=O)c1ccc(F)cc1)Nc1nc2ccc([N+](=O)[O-])cc2s1`, which “growth rescue (activation)” value is on record?
Its value is inactive: -12.3%.

For `COC(=O)COc1ccc(NC(=O)c2ccco2)cc1`, which “growth rescue (activation)” value is on record?
Its value is inactive: 1.18%.

Which “growth rescue (activation)” value does the source give for `CCc1ccc(C(C)NC(=O)Cc2ccc(F)cc2)cc1` (stereo unspecified) here?
Its value is inactive: 18.6%.

For `COc1ccc(NC(=O)CO/N=C2\CCCc3nonc32)cc1`, which “growth rescue (activation)” value is on record?
The value was inactive: 9.46%.

With `COc1ccc(NC(=O)Nc2ccc(C)cc2Br)c(OC)c1` as the compound, how does the “growth rescue (activation)” value read?
Its value is inactive: -10.3%.

For `O=C(CSc1nnc(-c2ccccn2)n1Cc1ccccc1)N1CCOCC1`, which “growth rescue (activation)” value is on record?
Its value is inactive: -5.83%.

For `CCc1nc2c(OCc3ccc(OC(F)F)cc3)cccn2c1N(C)C(=O)c1ccc(OC)cc1`, which “growth rescue (activation)” value is on record?
The value was inactive: -7.66%.

Which “growth rescue (activation)” value does the source give for `CC(Nc1nc(-c2ccccc2O)nc2ccccc12)c1ccccc1` (stereo unspecified) here?
The value was inactive: 3.07%.

With `O=C(Cc1ccc2c(c1)OCO2)NN=Cc1ccc([N+](=O)[O-])o1` as the compound, how does the “growth rescue (activation)” value read?
The value was inactive: 4.48%.

Which “growth rescue (activation)” value does the source give for `FC(F)(F)c1cccc(Cc2noc(CN3CCC(N4CCCCC4)CC3)n2)c1` here?
Its value is inactive: 14.2%.

Which “growth rescue (activation)” value does the source give for `O=C(CNC(=O)C1CC1)Nc1ccc(F)c(F)c1F` here?
The value was inactive: 2.9%.

With `C=CCNc1ncnc2c1[nH]c1ccccc12` as the compound, how does the “growth rescue (activation)” value read?
The value was inactive: 7.81%.

Which “growth rescue (activation)” value does the source give for `O=[N+]([O-])c1ccc2c(c1)C=C1CCCCC1(N1CCCCC1)O2` (stereo unspecified) here?
Its value is inactive: 17.5%.

With `Cc1ccccc1NC(=O)c1sc(NC(=O)COc2ccccc2)c(C#N)c1C` as the compound, how does the “growth rescue (activation)” value read?
Its value is inactive: 7.42%.

For `CC(C)Oc1cc(NC(=O)CS(=O)CC(=O)N(C)C)c(Cl)cc1Cl` (stereo unspecified), which “growth rescue (activation)” value is on record?
The value was inactive: -10.3%.

Which “growth rescue (activation)” value does the source give for `CCc1nc2ccc(C(=O)NCCOc3ccc(OC)cc3)cn2c1N(CC)Cc1ccc(OC)c(OC)c1` here?
Its value is inactive: -3.56%.

Which “growth rescue (activation)” value does the source give for `COc1ccc(NC(=O)CCN2C(=O)C3CC=CCC3C2=O)cc1S(=O)(=O)N1CCCCC1` (stereo unspecified) here?
The value was inactive: 0.421%.

With `Cc1ccc(C(=O)N2CCc3ccccc32)cc1[N+](=O)[O-]` as the compound, how does the “growth rescue (activation)” value read?
The value was inactive: 7.32%.

For `COc1ccc(NC2CCCN(C(=O)CCc3scnc3C)C2)cc1` (stereo unspecified), which “growth rescue (activation)” value is on record?
The value was inactive: -3.15%.

For `O=C(CCCNC(=O)c1ccc(Cl)cc1)NCc1ccccc1F`, which “growth rescue (activation)” value is on record?
Its value is inactive: 15.6%.

For `CCc1nnc(NC(=O)c2ccc(S(=O)(=O)N3CCc4ccccc4C3)cc2)s1`, which “growth rescue (activation)” value is on record?
Its value is inactive: 7.84%.

Which “growth rescue (activation)” value does the source give for `CCOc1ccc(S(=O)(=O)N2CCCC(C(=O)NCc3ccccn3)C2)cc1C` (stereo unspecified) here?
The value was inactive: -5.67%.

With `Cc1ccc(-c2nc(N)n(S(C)(=O)=O)n2)cc1` as the compound, how does the “growth rescue (activation)” value read?
Its value is inactive: 5.48%.

For `CCOC(=O)c1cnc2c(-c3cccc(Br)c3)cnn2c1C`, which “growth rescue (activation)” value is on record?
Its value is inactive: -9.87%.

With `O=C(Nc1cccc(NC(=O)c2cccs2)c1)c1ccc([N+](=O)[O-])o1` as the compound, how does the “growth rescue (activation)” value read?
Its value is inactive: 29.5%.

Which “growth rescue (activation)” value does the source give for `NC(c1csc(NC(=O)Nc2ccccc2Cl)n1)C1CCCCC1` (stereo unspecified) here?
Its value is inactive: -4.26%.

With `COc1ccc(OC)c(CCNC(=O)c2ccc(CS(=O)(=O)c3ccc(Br)cc3)o2)c1` as the compound, how does the “growth rescue (activation)” value read?
The value was inactive: 3.84%.

For `COc1ccc(SN=C2C(C)=CC(=O)C=C2C)cc1`, which “growth rescue (activation)” value is on record?
Its value is inactive: 21.9%.

Which “growth rescue (activation)” value does the source give for `CC1(C(=O)NC2CCN(Cc3ccccc3)CC2)CCN1CCc1ccccc1` (stereo unspecified) here?
The value was inactive: -2.93%.

With `N#Cc1c2n(c(=S)n(-c3ccccc3)c1=O)CCCCC2` as the compound, how does the “growth rescue (activation)” value read?
The value was inactive: -0.403%.

For `CC(C)(C)C(=O)NC1(C(F)(F)F)NC(=O)N(CCc2ccccc2)C1=O` (stereo unspecified), which “growth rescue (activation)” value is on record?
The value was inactive: 5.93%.

With `Cc1ccc(S(=O)(=O)N2CCN(C(=O)CCC(=O)N3CCc4ccccc43)CC2)cc1` as the compound, how does the “growth rescue (activation)” value read?
Its value is inactive: 13.7%.

Which “growth rescue (activation)” value does the source give for `CCCn1c(-c2ccc[nH]c2=O)nc2cc(C)c(C)cc21` here?
The value was inactive: 6.48%.

With `CCC(C)NC(=O)CO/N=C/c1ccccc1OC(F)F` (stereo unspecified) as the compound, how does the “growth rescue (activation)” value read?
Its value is inactive: 6.14%.

Which “growth rescue (activation)” value does the source give for `O=C(N/N=C/c1ccccc1O)c1cc[n+]([O-])cc1` here?
The value was inactive: -21.9%.

With `c1ccc(-n2cc(CN3CCC(N4CCOCC4)CC3)c(-c3ccc4c(c3)OCO4)n2)cc1` as the compound, how does the “growth rescue (activation)” value read?
The value was inactive: -12.9%.

For `Cc1ccc2c(c1)N(CC(=O)N1CCOCC1)C(=O)CO2`, which “growth rescue (activation)” value is on record?
The value was inactive: 13.4%.

For `Nc1ccc(C(=O)OCc2ccncc2)cc1[N+](=O)[O-]`, which “growth rescue (activation)” value is on record?
The value was inactive: 10.7%.

With `CCN(CC(=O)NCc1ccc(F)cc1)C(=O)c1cccnc1SC` as the compound, how does the “growth rescue (activation)” value read?
Its value is inactive: -14.3%.

For `COc1ccc(OC)c(C2=C/C(=C/c3ccccn3)C(=O)O2)c1`, which “growth rescue (activation)” value is on record?
The value was inactive: -14.5%.

For `O=C(CCC1CCCCC1)NCc1cccs1`, which “growth rescue (activation)” value is on record?
The value was inactive: 22.2%.

With `Cc1cc(C(=O)NN=C2CC(=O)CC(C)(C)C2)c(C)o1` as the compound, how does the “growth rescue (activation)” value read?
Its value is inactive: 14.9%.

Which “growth rescue (activation)” value does the source give for `Cc1cccc(C2c3[nH]c4ccccc4c3CCN2C(=O)CN2CCOC2=O)n1` (stereo unspecified) here?
Its value is inactive: 7.05%.

With `COC(=O)c1sc(N)c(C(=O)OC)c1Cn1ncc(Cl)c(Cl)c1=O` as the compound, how does the “growth rescue (activation)” value read?
Its value is inactive: 10.4%.

Which “growth rescue (activation)” value does the source give for `CC(C)c1ccccc1NS(=O)(=O)N(C)C` here?
Its value is inactive: 0.795%.

Which “growth rescue (activation)” value does the source give for `Cc1ccccc1C1c2[nH]c3ccccc3c2CCN1CCCn1cccn1` (stereo unspecified) here?
Its value is inactive: -16.5%.

For `O=C(CNS(=O)(=O)c1cccs1)NCc1ccc(F)cc1`, which “growth rescue (activation)” value is on record?
Its value is inactive: 11.1%.

With `CC1=NNC(=O)C1CCC(=O)N/N=C\c1cccc(Cl)c1` (stereo unspecified) as the compound, how does the “growth rescue (activation)” value read?
Its value is inactive: 11.2%.

Which “growth rescue (activation)” value does the source give for `COc1ccc(C(=O)N2c3ccc(C)cc3C(C)(c3ccccc3)CC2(C)C)cc1` (stereo unspecified) here?
The value was inactive: 5.34%.

— PubChem BioAssay AID1347073 (National Center for Advancing Translational Sciences (NCATS), 2019)
